In the BET-seq Pho4 binding data (Le et al. 2018):
This is one part of the list. Values were computed here from the reads of four pooled replicates and scatter widely.

Target: T1, Pho4 (S. cerevisiae) (UniProt P07270)
T1 sequence: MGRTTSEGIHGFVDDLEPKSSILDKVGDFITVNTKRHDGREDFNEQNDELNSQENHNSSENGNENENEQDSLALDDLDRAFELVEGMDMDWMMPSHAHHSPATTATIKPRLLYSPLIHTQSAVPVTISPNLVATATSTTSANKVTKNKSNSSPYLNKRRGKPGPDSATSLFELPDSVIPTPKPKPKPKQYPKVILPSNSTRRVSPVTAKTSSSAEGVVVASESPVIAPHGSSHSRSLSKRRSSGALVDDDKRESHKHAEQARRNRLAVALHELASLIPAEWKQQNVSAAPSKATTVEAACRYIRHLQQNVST
Assay: relative binding free energy (BET-seq); higher = weaker binding
Settings: reference: library average

Sequence	relative binding free energy [kcal/mol]
GGGTGCACGTGATATT	0.15
TAAATCACGTGGTATG	-0.11
GTATTCACGTGAGGTA	0.28
TGTTGCACGTGTTATG	0.03
TGTTACACGTGGGAGA	0.03
CTTAACACGTGGGGTA	-0.16
AATTCCACGTGTGGTT	0.12
TTATGCACGTGCTCTG	-0.12
TGTTGCACGTGTGCTA	0
AGGTGCACGTGGTCTT	-0.11
GGGCACACGTGGTGCA	0.12
ATATTCACGTGGTGCA	0.05
GTTTTCACGTGCTTAG	0.22
AGTGGCACGTGAGATG	0.08
GTAAGCACGTGTGGAA	0.11
GTTTTCACGTGATCAT	0.33
AATTGCACGTGGCGAT	0.11
TGTGTCACGTGGGCGG	-0.02
AATCGCACGTGGGTAG	-0.14
TATGGCACGTGTGATT	0.11
CTGGGCACGTGGAGTC	-0.06
AAGGTCACGTGTACTT	0.07
TTTCGCACGTGCAGGT	0.01
TGCATCACGTGGTTTC	0.21
TGGACCACGTGTGGTT	0.05

Sequence	relative binding free energy [kcal/mol]
CTGTGCACGTGTATAG	-0.09
GTCAACACGTGGAGTT	0.18
TGTAACACGTGGTCTT	-0.22
TGTTGCACGTGTCGAG	0.08
TATGTCACGTGCCGGG	-0.1
CTCGGCACGTGGGGGC	-0.28
GGGTCCACGTGTTATT	0
GTGGGCACGTGTTTGG	0.01
AGAAGCACGTGGTTTA	-0.08
CGGAGCACGTGTGTGC	-0.1
TTTTACACGTGAAGGA	0.43
CTTGTCACGTGTGGTG	0.11
TGTGACACGTGAAATT	0.15
ATTCGCACGTGTTAGG	-0.04
ATGTCCACGTGGCGGG	-0.18
TTTATCACGTGTTGAC	0.29
TTTAGCACGTGTATCT	0.09
ATCGGCACGTGCGTTG	-0.19
CGAGGCACGTGTGGTC	0.07
GGAAACACGTGTCGGG	0
GTGTGCACGTGTAGGG	0.03
ACGGTCACGTGTGCGT	0.12
GAAAGCACGTGAGAGG	0.26
TGTCTCACGTGGGGAT	0.11
GATTTCACGTGGGCAA	0.23

Sequence	relative binding free energy [kcal/mol]
ATTGTCACGTGGCTAG	0.13
CGTAGCACGTGTTAGT	-0.08
GGGAACACGTGAGGTA	0.26
GCGTACACGTGTTTGT	0.01
ATGTACACGTGGGTCT	-0.14
GGATCCACGTGAGGGT	0.27
ACAGGCACGTGGGTTG	-0.34
TGGTGCACGTGTTTAT	0.05
ATTCACACGTGGGTTG	-0.01
TACGACACGTGAGTGT	0.27
TTAGTCACGTGTGCTA	-0.06
TGTGACACGTGTTTAT	-0.07
ATGTTCACGTGTGCCG	0.17
TTTTTCACGTGCCTTA	0.28
AGAATCACGTGAGAGT	0.32
CTAGGCACGTGGGTAA	-0.17
GCGGGCACGTGTGTAG	0.03
CGGGTCACGTGCGAGT	0.06
TATAACACGTGGATGA	-0.03
TGTAACACGTGGTGGA	-0.16
GGGAGCACGTGGGTCC	-0.21
AGTGCCACGTGATGGC	0.2
TATGTCACGTGATCTG	0.18
